# Measurements taken from patent US20240209050A1 (LEGEND BIOTECH IRELAND, published 2024).
# B1: IL-15 mutein 1 (A23L), Avi-tagged (ligand)
# chain: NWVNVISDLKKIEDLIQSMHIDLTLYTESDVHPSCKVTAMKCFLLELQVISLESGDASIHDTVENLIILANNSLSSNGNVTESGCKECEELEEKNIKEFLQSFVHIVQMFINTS
# notes: Tested as crude HEK293 supernatant; the entry already carries A23L; also called m1; not shown: Avi tag
# B2: IL-15 mutein 2 (L25E), Avi-tagged (ligand)
# chain: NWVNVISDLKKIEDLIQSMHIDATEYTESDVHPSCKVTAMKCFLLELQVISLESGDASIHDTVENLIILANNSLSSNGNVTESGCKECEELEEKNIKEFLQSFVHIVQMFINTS
# notes: Tested as crude HEK293 supernatant; the entry already carries L25E; also called m2; not shown: Avi tag
# B3: IL-15 mutein 3 (Y26G), Avi-tagged (ligand)
# chain: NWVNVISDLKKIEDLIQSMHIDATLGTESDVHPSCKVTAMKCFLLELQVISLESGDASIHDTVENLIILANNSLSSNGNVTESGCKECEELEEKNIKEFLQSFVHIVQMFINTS
# notes: Tested as crude HEK293 supernatant; the entry already carries Y26G; also called m3; not shown: Avi tag
# B4: IL-15 mutein 4 (D8E), Avi-tagged (ligand)
# chain: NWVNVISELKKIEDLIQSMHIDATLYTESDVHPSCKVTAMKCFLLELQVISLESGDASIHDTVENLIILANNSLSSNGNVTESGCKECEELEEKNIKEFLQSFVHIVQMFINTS
# notes: Tested as crude HEK293 supernatant; the entry already carries D8E; also called m4; not shown: Avi tag
# B5: IL-15 mutein 5 (D61E), Avi-tagged (ligand)
# chain: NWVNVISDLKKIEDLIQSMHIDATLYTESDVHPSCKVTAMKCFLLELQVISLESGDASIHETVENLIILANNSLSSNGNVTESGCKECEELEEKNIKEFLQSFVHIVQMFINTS
# notes: Tested as crude HEK293 supernatant; the entry already carries D61E; also called m5; not shown: Avi tag
# B6: IL-15 mutein 6 (T62G), Avi-tagged (ligand)
# chain: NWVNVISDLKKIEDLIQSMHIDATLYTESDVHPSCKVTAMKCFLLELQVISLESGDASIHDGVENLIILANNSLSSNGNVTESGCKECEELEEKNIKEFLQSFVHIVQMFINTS
# notes: Tested as crude HEK293 supernatant; the entry already carries T62G; also called m6; not shown: Avi tag
# B7: IL-15 mutein 7 (T62I), Avi-tagged (ligand)
# chain: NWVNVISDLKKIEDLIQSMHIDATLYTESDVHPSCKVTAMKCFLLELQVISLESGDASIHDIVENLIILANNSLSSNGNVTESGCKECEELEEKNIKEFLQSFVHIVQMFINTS
# notes: Tested as crude HEK293 supernatant; the entry already carries T62I; also called m7; not shown: Avi tag
# Key:
# human IL-15R beta-His = molecular target: T1, human IL-15R beta-His (human, UniProt P14784 27-240); test: SPR, Biacore T200; Avi-tagged IL-15 captured via anti-Avi, receptor as analyte; 1:1 fit
# T1 construct: also called human IL-2Rβ; IL-15Rβ; not shown: His tag
# T1 sequence (looked up): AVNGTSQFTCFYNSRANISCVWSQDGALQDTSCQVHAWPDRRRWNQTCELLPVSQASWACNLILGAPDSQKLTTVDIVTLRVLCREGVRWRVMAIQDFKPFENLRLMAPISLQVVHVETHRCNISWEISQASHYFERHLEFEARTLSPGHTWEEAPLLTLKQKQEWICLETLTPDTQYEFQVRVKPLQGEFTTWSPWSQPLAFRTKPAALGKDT
# Procedure: (§1) Briefly, HEK293 cells were pelleted and the crude IL-15 mutein supernatants were used for affinity measurement by Surface Plasmon Resonance (SPR). The experiment was performed on a Biacore T200 SPR biosensor (GE Healthcare) at room temperature. The anti-Avi tag sensor chips were prepared at 25° C. with a running buffer of 10 mM HEPES, 150 mM NaCl, 3 mM EDTA, and 0.005% (v/v) Tween-20, pH 7.4. All surfaces of a Biacore CM5 sensor chip were activated with a 1:1 (v/v) mixture of 400 mM EDC and 100 mM NHS for 7 minutes, at a flow rate of 10 μL/min. An anti-Avi reagent (Genscript, Cat. No: A00674-200) was diluted to 30 μg/mL in 10 mM sodium acetate (pH 5.0) and injected on all flow cells for 7 minutes at 10 μL/min. All flow cells were blocked with 1 M Ethanolamine-HCl, pH 8.5 for 7 minutes at 10 μL/min.
# (§2) Avi-tagged IL-15 muteins were captured on flow cells 2, 3 and 4 at a flow rate of 10 μL/min for 30 seconds. The flow cell 1 was used as a reference surface. Following capture of IL-15 muteins, analytes (human IL-15Rα protein concentration ranging from 0.15625 nM to 1280 nM or human IL-2Rβ concentration ranging from 0.625 nM to 1280 nM) was injected at a flow rate of 30 μL/min in all flow cells for 100 seconds. After each analyte injection, dissociation was monitored for 600 seconds (i.e., human IL-15Rα protein as analyte) or 300 seconds (i.e., human IL-2Rβ protein as analyte), followed by regeneration of all flow cells with three 15-second injections of 10 mM Glycine-HCl, pH2.0. Sensorgrams of buffer cycles were collected for double-referencing purposes (see, e.g., Myszka DG. 1999. Journal of molecular recognition 12: 279-284). For kinetic analysis, the double-referenced sensorgrams were fit globally to a simple 1:1 Langmuir binding model using Biacore T200 Evaluation Software version 3.0.
# human IL-15R alpha-His = molecular target: T2, human IL-15R alpha-His (human, UniProt Q13261 31-205, limits assumed); test: as above
# Sequence of human IL-15R alpha-His (Q13261 31-205 limits assumed): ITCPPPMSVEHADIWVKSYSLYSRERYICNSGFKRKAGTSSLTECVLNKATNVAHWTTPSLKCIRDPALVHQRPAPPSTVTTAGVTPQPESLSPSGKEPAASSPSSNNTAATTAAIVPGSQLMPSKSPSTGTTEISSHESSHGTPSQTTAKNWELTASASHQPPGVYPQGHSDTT
# T2 construct: also called human IL-15Rα protein; IL-15Rα; not shown: His tag
# Procedure: as §1, §2
Binder,Affinity change (muteins/WT) (human IL-15R beta-His),Binding Level (human IL-15R beta-His),Kd (human IL-15R beta-His) [nM],koff (human IL-15R beta-His) [s⁻¹],kon (human IL-15R beta-His) [M⁻¹ s⁻¹],Affinity change (muteins/WT) (human IL-15R alpha-His),Kd (human IL-15R alpha-His) [nM],koff (human IL-15R alpha-His) [s⁻¹],kon (human IL-15R alpha-His) [M⁻¹ s⁻¹],Binding Level (human IL-15R alpha-His)
B1,0.8 ratio (muteins/WT),50.3,8.3,0.008,970000,~0.14 ratio (muteins/WT),< 0.0017,1.7e-05,> 1e+07,
B2,286 ratio (muteins/WT),5.3,2900,0.077,27000,~583 ratio (muteins/WT),7,0.00023,32000,63.8
B3,8.5 ratio (muteins/WT),46.2,86,0.0074,86000,~2830 ratio (muteins/WT),34,0.1,3e+06,24.6
B4,20 ratio (muteins/WT),3.6,200,0.0017,8400,~0.25 ratio (muteins/WT),< 0.003,3e-05,> 1e+07,25.3
B5,0.3 ratio (muteins/WT),30.9,3.1,0.0021,670000,,< 0.01,0.0001,> 1e+07,37.2
B6,14.4 ratio (muteins/WT),14.2,150,0.082,560000,,< 0.0083,8.3e-05,> 1e+07,20.7
B7,> 67 ratio (muteins/WT),22.2,> 670,> 0.1,160000,~0.35 ratio (muteins/WT),< 0.0042,4.2e-05,> 1e+07,33.2
